# The other results are listed elsewhere or left out.
# Test system: PF3D7_0420300 AP2 domain 1 (GST-tagged)
# Assay: gcPBM binding intensity (ln(normalized median fluorescence intensity)); higher = stronger DNA binding
# Procedure, shortened: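 In this array assay, P. falciparum DNA-binding domains with a GST tag, expressed in E. coli, were applied for 1 h to primer-extended double-stranded 36-bp intergenic genomic probes and negative controls on an Agilent 4 × 180k array. Bound protein was visualised with Alexa488 anti-GST antibody at 488 nm. Binding intensity is the highest Masliner-normalised natural-log median intensity across replicate spots of either probe orientation.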
row,Sequence,gcPBM binding intensity (ln)
1,ATTATAAATATGTATATACACACTTTTAATATTCAT [CACACA_site9367],9.5
2,AAGCAAACATATTAATGTACACACACCCACACACAA [XGTACX_site5806],10.1
3,TAAGATAAATGATAAAGTACTTTTTTTTTTTAAATA [XGTACX_site2326],8.84
4,ATTTATAAAATTAATAGTACATATATTTATATATAT [XGTACX_site4173],9.01
5,TATTGCACAAAATAATTTTATTATACTTTATGTTAG [TGCATGCA_negctrl_site574],9.15
6,TATGTTCATCATAGCACACATATATAAATTACAACA [CACACA_site3533],9.22
7,ATTTGGCATAGACACACACACACACGCACGCACATA [CACACA_site6424],10.4
8,CAAAAATAAACTATAGTACACACTTATTATTATGAA [CACACA_site2702],9.46
9,TTTTTATGTAGAATTTTTTTATTTTTTCAAAATGGA [CACACA_negctrl_site166],8.69
10,ATTGTAATCATATGAAGTACTAATATATATTTTAAT [XGTACX_site8350],9.13
11,TATAATGTTAAATAATGTACATATATTTTTTTTTTT [XGTACX_site4722],9.07
12,TTACAATTTAATATATGTACATATTTGTGATTTATC [XGTACX_site2911],9.2
13,TATATATATTAAAAAGTGCATTATTCATATTATATA [GTGCAC_site9400],9.09
14,TTTATTAATAATTATACACACATATAAAATGAATAA [CACACA_site1359],9.33
15,AAAATATCTTGTTACTGTACAAATATAAATAAATAC [XGTACX_site3684],9.24
16,ATATATACGTATGAATGTATATTTGTTTGAATTTTT [CACACA_negctrl_site524],9.17
17,AATAATAACATACAGACACACACGTAAAAGCACGTG [CACACA_site253],9.9
18,TTTATATATTAATATGCACACACAAGAAGTAATTAT [CACACA_site9045],9.68
19,AATGGGTAAACATACACACACACATATATATATATA [CACACA_site1991],9.87
20,TATTAATATTTTTGTTGTACTTAAAAATGATGGTAG [XGTACX_site3501],8.97
21,AGTAAAAAAAAAAAAAAAAAAAAAAAAAAAAAAAAA [GTGCAC_negctrl_site147],8.67
22,TATTATTTTAATTATTCACACATTATTATAAAAATT [CACACA_site5538],9.12
23,CATATACACGAACACACACACATATAAATAAATATA [CACACA_site6379],10.1
24,GGAATATTAAAAAAATGTACAAAAAATAATATCCAT [XGTACX_site2596],9.43
